Results published in the supplement of paper PMC10037445.
Over roughly 2,900 compounds, “NF-kB SEAP reporter activity, fold change vs agonist alone” has its median near 0.99; the highest 2% begin near 2.6. The list shows a part of the results.

Tests used:
RAW-Dual [1] = assay: NF-kB SEAP reporter activity, fold change vs agonist alone; cytotoxicity flag (confluency mask): not cytotoxic; higher = enhanced NF-kB activity
How it was run: (§1)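 Reporter activity is given as fold change relative to agonist-alone wells. To measure it, 50 nL of library stock was pin-tooled onto RAW-Dual macrophages (50,000 cells/well, DMEM, 384-well plates), a PRR agonist followed 1 h later, and cells stayed at 37 °C, 5% CO2. Twenty hours on, supernatant was assayed for IRF (QuantiLuc luminescence) and NF-κB (QuantiBlue, 620 nm absorbance), and wells under 70% of agonist-control IncuCyte confluency in both mask sets were marked cytotoxic.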

RAW-Dual [2] = assay: NF-kB SEAP reporter activity, fold change vs agonist alone; higher = enhanced NF-kB activity
How it was run: as §1

RAW-Dual [3] = assay: NF-kB SEAP reporter activity, fold change vs agonist alone; cytotoxicity flag (confluency mask): cytotoxic (confluency <70% of control); higher = enhanced NF-kB activity
How it was run: as §1

[4] = agonist: ODN 1826 (TLR9) 0.5 ug/mL
[5] = library stock concentration (final ~1000-fold dilution): 10 mM, cytotoxicity flag (confluency mask): not cytotoxic, agonist: Imiquimod (TLR7) […]
[6] = library stock concentration (final ~1000-fold dilution): 10 mM, cytotoxicity flag (confluency mask): not cytotoxic, agonist: MPLA (TLR4) […]
[7] = agonist: Pam2CSK4 (TLR2/6) 0.1 ug/mL
[8] = agonist: Pam3CSK4 (TLR2/1) 0.1 ug/mL
[9] = library stock concentration (final ~1000-fold dilution): 10 mM, cytotoxicity flag (confluency mask): cytotoxic (confluency <70% of control), agonist: Imiquimod (TLR7) […]
[10] = library stock concentration (final ~1000-fold dilution): 10 mM, cytotoxicity flag (confluency mask): cytotoxic (confluency <70% of control), agonist: MPLA (TLR4) […]

In the case of CCC1(O)CC2CN(CCc3c([nH]c4ccccc34)C(C(=O)OC)(c3cc4c(cc3OC)N(C=O)C3C(O)(C(=O)OC)C(OC(C)=O)C5(CC)C=CCN6CCC43C65)C2)C1.O=S(=O)(O)O (stereo unspecified) (library stock concentration (final ~1000-fold dilution): 10 mM), the “NF-kB SEAP reporter activity” value (RAW-Dual [1]; agonist: LPS (TLR4) 0.1 ug/mL) is reported as 5.34 and the “NF-kB SEAP reporter activity” value (RAW-Dual [1]; [4]) is reported as 3.28.

With CC1CC(=O)Nc2cccc(-c3ccc4c(c3)c(-c3cnn(C)c3)nn4C)c2N1 (stereo unspecified) the “NF-kB SEAP reporter activity” value (RAW-Dual [2]; [5]) was 1.46 and the “NF-kB SEAP reporter activity” value (RAW-Dual [2]; [6]) was 2.15.

With CC1CC(=O)Nc2cccc(-c3ccc4c(c3)c(-c3cnn(C)c3)nn4C)c2N1 (stereo unspecified) (library stock concentration (final ~1000-fold dilution): 10 mM) the “NF-kB SEAP reporter activity” value (RAW-Dual [1]; agonist: LPS (TLR4) 0.1 ug/mL) was 3.26, the “NF-kB SEAP reporter activity” value (RAW-Dual [1]; [4]) was 2.08 and the “NF-kB SEAP reporter activity” value (RAW-Dual [1]; [7]) was 0.673. For the same molecule, the “NF-kB SEAP reporter activity” value (RAW-Dual [1]; [8]) was 1.28.

In the case of Cc1ccc(C(=O)C(C)CN2CCCCC2)cc1.Cl (stereo unspecified) (library stock concentration (final ~1000-fold dilution): 10 mM), the “NF-kB SEAP reporter activity” value (RAW-Dual [1]; agonist: LPS (TLR4) 0.1 ug/mL) is reported as 1.09, the “NF-kB SEAP reporter activity” value (RAW-Dual [1]; [4]) is reported as 0.891 and the “NF-kB SEAP reporter activity” value (RAW-Dual [1]; [7]) is reported as 1.04. The “NF-kB SEAP reporter activity” value (RAW-Dual [1]; [8]) was 1.06.

For Cc1ccc(C(=O)C(C)CN2CCCCC2)cc1.Cl (stereo unspecified), the “NF-kB SEAP reporter activity” value (RAW-Dual [2]; [5]) was 0.909 and the “NF-kB SEAP reporter activity” value (RAW-Dual [2]; [6]) was 1.06.

With CC(C)(C)c1nc(-c2cccc(NS(=O)(=O)c3c(F)cccc3F)c2F)c(-c2ccnc(N)n2)s1.CS(=O)(=O)O (library stock concentration (final ~1000-fold dilution): 10 mM) the “NF-kB SEAP reporter activity” value (RAW-Dual [1]; agonist: LPS (TLR4) 0.1 ug/mL) was 3.17 and the “NF-kB SEAP reporter activity” value (RAW-Dual [1]; [4]) was 3.05.

In the case of O=C(c1ccc(F)cc1)C1CCN(CCn2c(=O)[nH]c3ccccc3c2=O)CC1, the “NF-kB SEAP reporter activity” value (RAW-Dual [2]; library stock concentration (final ~1000-fold dilution): 2 mM, cytotoxicity flag (confluency mask): not cytotoxic, agonist: Imiquimod (TLR7) […]) is reported as 0.664 and the “NF-kB SEAP reporter activity” value (RAW-Dual [2]; library stock concentration (final ~1000-fold dilution): 2 mM, cytotoxicity flag (confluency mask): not cytotoxic, agonist: MPLA (TLR4) […]) is reported as 1.06.

In the case of O=C(c1ccc(F)cc1)C1CCN(CCn2c(=O)[nH]c3ccccc3c2=O)CC1 (library stock concentration (final ~1000-fold dilution): 2 mM), the “NF-kB SEAP reporter activity” value (RAW-Dual [1]; agonist: LPS (TLR4) 0.1 ug/mL) is reported as 1.41, the “NF-kB SEAP reporter activity” value (RAW-Dual [1]; [4]) is reported as 1.11 and the “NF-kB SEAP reporter activity” value (RAW-Dual [1]; [7]) is reported as 1.08. For the same molecule, the “NF-kB SEAP reporter activity” value (RAW-Dual [1]; [8]) was 0.948.

With Nc1nccc(Oc2ccc(NC(=O)c3c[nH]cc(-c4ccc(F)cc4)c3=O)cc2F)c1Cl (library stock concentration (final ~1000-fold dilution): 10 mM) the “NF-kB SEAP reporter activity” value (RAW-Dual [1]; agonist: LPS (TLR4) 0.1 ug/mL) was 0.237, the “NF-kB SEAP reporter activity” value (RAW-Dual [1]; [4]) was 0.239 and the “NF-kB SEAP reporter activity” value (RAW-Dual [1]; [7]) was 0.0785. For the same molecule, the “NF-kB SEAP reporter activity” value (RAW-Dual [1]; [8]) was 0.188.

For Nc1nccc(Oc2ccc(NC(=O)c3c[nH]cc(-c4ccc(F)cc4)c3=O)cc2F)c1Cl, the “NF-kB SEAP reporter activity” value (RAW-Dual [2]; [5]) was 0.254 and the “NF-kB SEAP reporter activity” value (RAW-Dual [2]; [6]) was 0.313.

In the case of C#CCNC1CCc2ccccc21 (stereo unspecified) (library stock concentration (final ~1000-fold dilution): 10 mM), the “NF-kB SEAP reporter activity” value (RAW-Dual [1]; agonist: LPS (TLR4) 0.1 ug/mL) is reported as 1.06, the “NF-kB SEAP reporter activity” value (RAW-Dual [1]; [4]) is reported as 0.931 and the “NF-kB SEAP reporter activity” value (RAW-Dual [1]; [7]) is reported as 1.04. The “NF-kB SEAP reporter activity” value (RAW-Dual [1]; [8]) was 1.08.

C#CCNC1CCc2ccccc21 (stereo unspecified) was tested, and the “NF-kB SEAP reporter activity” value (RAW-Dual [2]; [5]) was 0.916 and the “NF-kB SEAP reporter activity” value (RAW-Dual [2]; [6]) was 1.14.

In the case of CNC(C)C(=O)NC1CN(C(=O)CC(C)C)CCC2CCC(C(=O)NC(c3ccccc3)c3ccccc3)N2C1=O (stereo unspecified) (library stock concentration (final ~1000-fold dilution): 10 mM), the “NF-kB SEAP reporter activity” value (RAW-Dual [1]; agonist: LPS (TLR4) 0.1 ug/mL) is reported as 0.854, the “NF-kB SEAP reporter activity” value (RAW-Dual [1]; [4]) is reported as 1.1 and the “NF-kB SEAP reporter activity” value (RAW-Dual [1]; [7]) is reported as 0.925. The “NF-kB SEAP reporter activity” value (RAW-Dual [1]; [8]) was 1.08.

For CNC(C)C(=O)NC1CN(C(=O)CC(C)C)CCC2CCC(C(=O)NC(c3ccccc3)c3ccccc3)N2C1=O (stereo unspecified), the “NF-kB SEAP reporter activity” value (RAW-Dual [2]; [5]) was 0.948 and the “NF-kB SEAP reporter activity” value (RAW-Dual [2]; [6]) was 0.82.

With Clc1ccc2c(c1)CCc1cccnc1C2=C1CCNCC1 (library stock concentration (final ~1000-fold dilution): 10 mM) the “NF-kB SEAP reporter activity” value (RAW-Dual [3]; agonist: LPS (TLR4) 0.1 ug/mL) was 0.944, the “NF-kB SEAP reporter activity” value (RAW-Dual [3]; [4]) was 0.513 and the “NF-kB SEAP reporter activity” value (RAW-Dual [3]; [7]) was 0.804. For the same molecule, the “NF-kB SEAP reporter activity” value (RAW-Dual [3]; [8]) was 0.831.

Clc1ccc2c(c1)CCc1cccnc1C2=C1CCNCC1 was tested, and the “NF-kB SEAP reporter activity” value (RAW-Dual [2]; [9]) was 1.49 and the “NF-kB SEAP reporter activity” value (RAW-Dual [2]; [10]) was 1.3.

In the case of O=C(Nc1c[nH]nc1-c1nc2cc(CN3CCOCC3)ccc2[nH]1)NC1CC1 (library stock concentration (final ~1000-fold dilution): 10 mM), the “NF-kB SEAP reporter activity” value (RAW-Dual [3]; agonist: LPS (TLR4) 0.1 ug/mL) is reported as 0.238, the “NF-kB SEAP reporter activity” value (RAW-Dual [3]; [4]) is reported as 0.21 and the “NF-kB SEAP reporter activity” value (RAW-Dual [3]; [7]) is reported as 0.0962. The “NF-kB SEAP reporter activity” value (RAW-Dual [3]; [8]) was 0.148.

For O=C(Nc1c[nH]nc1-c1nc2cc(CN3CCOCC3)ccc2[nH]1)NC1CC1, the “NF-kB SEAP reporter activity” value (RAW-Dual [2]; [9]) was 0.338 and the “NF-kB SEAP reporter activity” value (RAW-Dual [2]; [10]) was 0.256.

In the case of Cl.O=C(O)/C=C/c1ccc(Cn2ccnc2)cc1 (library stock concentration (final ~1000-fold dilution): 10 mM), the “NF-kB SEAP reporter activity” value (RAW-Dual [1]; agonist: LPS (TLR4) 0.1 ug/mL) is reported as 1.01, the “NF-kB SEAP reporter activity” value (RAW-Dual [1]; [4]) is reported as 0.938 and the “NF-kB SEAP reporter activity” value (RAW-Dual [1]; [7]) is reported as 1.06. For the same molecule, the “NF-kB SEAP reporter activity” value (RAW-Dual [1]; [8]) was 1.09.

With Cl.O=C(O)/C=C/c1ccc(Cn2ccnc2)cc1 the “NF-kB SEAP reporter activity” value (RAW-Dual [2]; [5]) was 0.935 and the “NF-kB SEAP reporter activity” value (RAW-Dual [2]; [6]) was 1.02.

For Nc1nc(NCCNc2ncc(-n3ccnc3)c(-c3ccc(Cl)cc3Cl)n2)ccc1[N+](=O)[O-], the “NF-kB SEAP reporter activity” value (RAW-Dual [2]; [5]) was 2.49 and the “NF-kB SEAP reporter activity” value (RAW-Dual [2]; [6]) was 2.25.

With Nc1nc(NCCNc2ncc(-n3ccnc3)c(-c3ccc(Cl)cc3Cl)n2)ccc1[N+](=O)[O-] (library stock concentration (final ~1000-fold dilution): 10 mM) the “NF-kB SEAP reporter activity” value (RAW-Dual [1]; agonist: LPS (TLR4) 0.1 ug/mL) was 2.5, the “NF-kB SEAP reporter activity” value (RAW-Dual [1]; [4]) was 2.96 and the “NF-kB SEAP reporter activity” value (RAW-Dual [1]; [7]) was 1.46. The “NF-kB SEAP reporter activity” value (RAW-Dual [1]; [8]) was 2.83.

In the case of O=C(NC1(c2ccccc2)CC1)c1c(CN2CCC(N3CCCCC3)CC2)c(-c2cccc(C(F)(F)F)c2)nc2cc(Br)ccc12 (library stock concentration (final ~1000-fold dilution): 10 mM), the “NF-kB SEAP reporter activity” value (RAW-Dual [3]; agonist: LPS (TLR4) 0.1 ug/mL) is reported as 2.58.

With CCN(CC)c1ccc2cc(C(=O)O)c(=O)oc2c1 the “NF-kB SEAP reporter activity” value (RAW-Dual [2]; [6]) was 0.899.

With CCN(CC)c1ccc2cc(C(=O)O)c(=O)oc2c1 (library stock concentration (final ~1000-fold dilution): 10 mM) the “NF-kB SEAP reporter activity” value (RAW-Dual [1]; agonist: LPS (TLR4) 0.1 ug/mL) was 1.23, the “NF-kB SEAP reporter activity” value (RAW-Dual [1]; [4]) was 0.807 and the “NF-kB SEAP reporter activity” value (RAW-Dual [1]; [7]) was 1.3. For the same molecule, the “NF-kB SEAP reporter activity” value (RAW-Dual [1]; [8]) was 0.86.

In the case of CSC(=N)N (library stock concentration (final ~1000-fold dilution): 10 mM water), the “NF-kB SEAP reporter activity” value (RAW-Dual [1]; agonist: LPS (TLR4) 0.1 ug/mL) is reported as 1.13, the “NF-kB SEAP reporter activity” value (RAW-Dual [1]; [4]) is reported as 1.14 and the “NF-kB SEAP reporter activity” value (RAW-Dual [1]; [7]) is reported as 1.2. For the same molecule, the “NF-kB SEAP reporter activity” value (RAW-Dual [1]; [8]) was 1.26.

In the case of CSC(=N)N, the “NF-kB SEAP reporter activity” value (RAW-Dual [2]; library stock concentration (final ~1000-fold dilution): 10 mM water, cytotoxicity flag (confluency mask): not cytotoxic, agonist: Imiquimod (TLR7) […]) is reported as 0.949 and the “NF-kB SEAP reporter activity” value (RAW-Dual [2]; library stock concentration (final ~1000-fold dilution): 10 mM water, cytotoxicity flag (confluency mask): not cytotoxic, agonist: MPLA (TLR4) […]) is reported as 0.991.
